Whole data set: some 110,000 compounds, median “z-score” near -0.1, cut for the highest 2% near 2. The list shows a part of the results. Activity calls are given as the source filed them.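 Rule for the calls: active = z-score in the third read window above 3 or below -3; inactive = the rest.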
Each compound was assayed against Metabotropic glutamate receptor 8 (Rattus norvegicus) (UniProt P70579) (assay: rat mGluR8 modulators via GIRK flux, primary screen, cell-based, thallium flux, HTS (AID 488969)). Details: HEK293 rat mGluR8, GIRK (G protein-gated inwardly rectifying potassium channel) thallium flux, FluoZin2; at 10 µM; stronger effect = higher value; submaximal glutamate (EC20) added with thallium.
UniProt P70579, sequence (P70579 whole entry, looked up): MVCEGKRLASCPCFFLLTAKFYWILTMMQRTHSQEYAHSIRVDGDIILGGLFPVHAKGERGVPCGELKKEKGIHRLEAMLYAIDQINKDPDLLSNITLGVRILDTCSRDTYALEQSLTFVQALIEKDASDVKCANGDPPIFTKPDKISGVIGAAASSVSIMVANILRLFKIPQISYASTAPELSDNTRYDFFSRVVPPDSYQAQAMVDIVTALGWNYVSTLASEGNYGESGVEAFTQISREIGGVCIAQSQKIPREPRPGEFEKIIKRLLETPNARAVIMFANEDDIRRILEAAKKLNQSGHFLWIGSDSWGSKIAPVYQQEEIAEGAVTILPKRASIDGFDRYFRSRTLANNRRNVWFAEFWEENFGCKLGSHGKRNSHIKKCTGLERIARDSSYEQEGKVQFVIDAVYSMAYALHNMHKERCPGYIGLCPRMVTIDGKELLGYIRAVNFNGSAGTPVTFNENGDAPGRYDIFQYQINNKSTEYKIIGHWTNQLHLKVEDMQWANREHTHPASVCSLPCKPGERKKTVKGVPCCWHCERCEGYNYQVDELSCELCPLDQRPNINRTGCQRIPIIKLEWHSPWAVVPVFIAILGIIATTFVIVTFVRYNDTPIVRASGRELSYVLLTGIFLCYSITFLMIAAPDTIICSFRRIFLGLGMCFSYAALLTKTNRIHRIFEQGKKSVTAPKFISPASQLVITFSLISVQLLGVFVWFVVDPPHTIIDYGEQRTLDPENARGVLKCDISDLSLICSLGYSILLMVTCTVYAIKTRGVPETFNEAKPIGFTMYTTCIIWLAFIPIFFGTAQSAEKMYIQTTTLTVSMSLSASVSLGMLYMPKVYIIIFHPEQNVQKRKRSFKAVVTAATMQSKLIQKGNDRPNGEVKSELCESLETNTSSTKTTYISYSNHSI

SMILES | z-score
CCCc1nc(N)c(C#N)c(-c2cccnc2)c1CC | 0.793
COCCNC(=O)/C(C#N)=C/C(C)=C/c1ccccc1 | -0.0889
CCOC(=O)c1cc(-c2cccnc2)nn1-c1ccccn1 | 0.419
CC(=O)c1c(C)[nH]c(C(=O)N2CCN(C(=O)c3ccco3)CC2)c1C | -0.564
CCOc1ccccc1NC(=O)C1CCN(C(=O)NCc2ccccc2)CC1 | 0.346
O=C1C2C3C=CC(C4CC34)C2C(=O)N1/N=C/c1ccc(-c2ccccc2[N+](=O)[O-])o1 (stereo not given) | -0.386
CS(=O)(=O)N(CC(=O)Nc1cccc(Cl)c1Cl)c1ccccc1 | 0.0263
Cc1ccc(C(c2nnnn2C2CCCC2)N2CCN3CCCC3C2)cc1 (stereo not given) | 0.717
O=C(N=Nc1c(O)[nH]c2ccc(Br)cc12)c1cc(-c2cccc3ccccc23)n[nH]1 | -0.0915
COc1ccc(C(=O)Nc2cc(C(C)=O)c(/C=C/N(C)C)oc2=O)cc1 | -1.53
CC1(C)CC(=O)N(CC(=O)NCc2ccc(F)cc2)c2ccccc2S1(=O)=O | 0.393
COc1cc2c(cc1OC)C(Nc1ccc(S(N)(=O)=O)cc1)=NC(C)(C)C2 | -0.166
CCOC(=O)c1c(N)sn(-c2ccccc2)c1=S | 0.0646
COc1cc(C)c(S(=O)(=O)NCc2ccc3c(c2)OCO3)cc1C | -0.647
O=C(CCSCCc1ccccn1)Nc1c(F)cc(F)cc1Br | -0.0918
Cc1ccc(-n2nc(C)c(Sc3ccccc3[N+](=O)[O-])c2N)cc1 | -0.235
Cc1cc2cc(C)c3nnc(SCc4ccccn4)n3c2cc1C | -0.371
CCOC(=O)c1c(C)[nH]c(/C(C)=N/O)c1C | -0.215
CCOc1ncccc1C(=O)NCc1ccc(OC)cc1 | -0.142
O=C(Nc1ccc(-c2nc3cc(NC(=O)c4cccs4)ccc3o2)cc1)c1cccs1 | -0.0965
Nc1nc(Nc2ccc(Cl)cc2)n[nH]1 | 0.393
Nc1n[nH]c(S(=O)(=O)CCCc2ccccc2)n1 | 0.7

SMILES | z-score
Cc1cccc(C)c1NC1=C(Cl)C(=O)OC1OC(C)C (stereo not given) | -0.166
C=CCn1c(NCCOC)nc2c1c(=O)n(C)c(=O)n2C | -0.0168
CCc1nn(-c2ccccc2)c(N)c1-c1ccc(OC)c(OC)c1 | 1.57
O=C1C2C3C=CC(C3)C2C(=O)N1c1ccc(-c2nc3ccccc3o2)cc1 (stereo not given) | -0.419
O=C(c1ccc2nc3ccccc3c(=O)n2c1)N1CCN(Cc2ccc3c(c2)OCO3)CC1 | -0.487
CCOC(=O)c1ccc(NC(=O)CSC2=NC(=O)C(CC)C(=O)N2)cc1 (stereo not given) | 1.28
Cc1ccccc1NC(=O)CSc1nc2cc3c(cc2cc1C)CCC3 | -0.0799
COc1ccc(Nc2ncnc3c2cnn3-c2ccccc2)cc1OC | -0.331
COC(=O)CNC(=O)COc1ccccc1 | -0.267
c1ccc2c(c1)CC1(CCCC1)n1nnnc1-2 | -0.648
CCOC(=O)C1C(=O)NC(C)C1c1ccccc1 (stereo not given) | 0.0703
COc1ccc(OC)c(S(=O)(=O)Nc2ccccc2F)c1 | 0.127
O=C(CN1CCN(Cc2ccccc2Cl)C1=O)NC1CCCCCC1 | -1.05
COc1ccc(-c2[nH]nc3c2C(c2ccsc2)C(C#N)=C(N)O3)cc1 (stereo not given) | 0.0634
N#Cc1ccc(CNc2cnccn2)cc1 | -0.0761
CCn1c(COc2cccc(OC)c2)nnc1SCC(=O)Nc1ccccc1C(=O)OC | -1.81
O=c1ccn(-c2cccc(C(F)(F)F)c2)nc1-c1ccn(-c2ccccc2F)n1 | -0.283
CCCc1nn(C)c2c(=O)[nH]c(-c3ccccc3OCC)nc12 | -0.237
O=C(CCc1c[nH]c2ccccc12)NC1CC1 | 0.058
N=c1c2c(n(Cc3cccc(Cl)c3)c3c1CCC3)CCCC2 | -0.273
O=C(c1ccco1)N1CCN(c2ccc(Cl)cc2)CC1 | -0.265
CCCCC(=O)C1=C(N2CCCC2)CC(C)(C)CC1=O | 0.311

SMILES | z-score
CCCCN(CCCC)C(=S)NC(=O)C(C)(C)C | active: 5.35
Cn1cccc1/C=N/NC(=O)C12CC3CC(CC(C3)C1)C2 | -0.182
Cc1cccc(C)c1NC(=S)NCCc1ccccn1 | -0.183
Cc1cc(C)nc(N2CCC(C(=O)NCCc3ccccc3)CC2)n1 | 0.0693
CCCN1C2=C(C(=O)CCC2)C(c2ccc(F)cc2)C2=C1c1ccccc1C2=O (stereo not given) | -0.266
CC(C)(C)c1ccc(C(=O)OCC(=O)Nc2sc3c(c2C#N)CCC3)cc1 | -0.201
C=CCc1cccc2cc(NC(C)=O)c(=O)oc12 | -0.0388
COc1ccc(C(=O)Nc2nc(-c3ccc(S(=O)(=O)N4CCOCC4)cc3)cs2)cc1 | -0.442
CC(=O)c1ccc(NC(=O)c2ccccc2Sc2ncnc3sc(C)c(C)c23)cc1 | -0.343
COc1ccc(N(C(=O)c2cnsn2)C(C(=O)NC2CCCCC2)c2ccncc2)cc1 (stereo not given) | 0.0313
O=C(CSc1nc2ccccc2c2nc3ccccc3n12)NCc1ccco1 | -0.0376
Cc1c(S(=O)(=O)Nc2ccc3c(c2)OCCO3)c(=O)n(C)c(=O)n1C | -0.227
CC1CCc2cc(F)ccc2N1C(=O)CSc1nnc2c3cc(F)ccc3n(C)c2n1 (stereo not given) | -0.125
CC1(C)C(C#N)=C(N)OC2=C1C(=O)CCC2 | 0.297
Cc1nn2cc(-c3ccccc3)nc2s1 | 0.515
C/C(CC(=O)NC12CC3CC(CC(C3)C1)C2)=N\NC(=O)Cc1cccs1 | -0.0237
CC(C)OCCCNC(=O)c1ccc(NS(C)(=O)=O)cc1 | 0.427
CNC(=O)c1ccc(N(Cc2ccccc2)S(C)(=O)=O)cc1 | -0.214
COc1ccc2cc(C#N)c(NC(C)C)nc2c1 | -0.494
Cc1cc(C)n2cc(CSc3nnnn3-c3ccc(Cl)cc3)nc2n1 | -0.269
CC1(C)Cc2c(sc(NC(=O)c3ccco3)c2C(=O)O)CO1 | -0.292
COc1cc(-c2noc(CCCC(=O)NC3CCCCC3)n2)cc(OC)c1OC | 0.572

SMILES | z-score
O=C(N/N=C/c1ccc(Br)cc1)c1cc[n+](Cc2ccccc2)cc1 | -0.137
O=C(CN1CCCCC1)Nc1nnc(-c2ccc([N+](=O)[O-])cc2)s1 | 0.0367
COc1cccc(-c2cc(C(F)(F)F)nc(NCc3ccco3)n2)c1 | -0.0697
CCCc1ccc(Oc2cn[nH]c2-c2ccc(O)cc2O)cc1 | 0.221
C=C(C)CSc1nnc(-c2cccc(S(=O)(=O)N(C)C)c2)n1-c1cc(OC)ccc1OC | -1.38
CC(C)CC(N=C1NC(C)(C)Cc2ccccc21)C(=O)O (stereo not given) | -0.0733
Cc1ccc(-n2nc(C)c3c(C)c(CCC(=O)NCc4ccco4)c(C)nc32)cc1 | -0.789
CCOc1ccc(N(CC(=O)NCc2ccccc2)S(=O)(=O)c2c(C)noc2C)cc1 | 0.0536
N#CCOc1nc(N2CCOCC2)nc(N2CCOCC2)n1 | -0.0212
O=S(=O)(Nc1ccc(S(=O)(=O)Nc2cccc3ccccc23)cc1)c1ccccc1 | active: -3.06
Fc1ccc(/C=C/c2nnc(-c3cccs3)o2)cc1 | -0.493
Cc1cccc(-c2nc(CSCC(=O)NCc3cccs3)c(C)o2)c1 | -0.318
COc1cc(-c2nc(-c3cccc(C(F)(F)F)c3)no2)cc(OC)c1OC | 0.166
COc1ccccc1-n1cnc2c(c1=O)c1nc3ccccc3nc1n2-c1ccc(C)cc1 | -0.63
COc1ccc(O)c(-c2cc(-c3ccccc3[N+](=O)[O-])[nH]n2)c1 | -0.247
CCCCn1c(SCC(=O)c2ccc3c(c2)OCCO3)nnc1-c1ccco1 | -0.591
C=CCn1c(SCc2c(F)c(F)c(F)c(F)c2F)nc(O)cc1=O | -0.151
C/C(N)=C(/C#N)C(=O)CSc1nnc(COc2cc(C)ccc2C)o1 | 0.16
O=[N+]([O-])c1cc(S(=O)(=O)NCCCN2CCOCC2)ccc1Cl | -0.267
Cc1ccc(-c2ccc(/C=C/C(=O)c3ccccc3)o2)cc1 | -0.233
O=C(COc1ccc(/C=N/NC(=O)c2ccccc2O)cc1)Nc1ccc([N+](=O)[O-])cc1 | -0.123
Cc1ccc(C)c(NS(=O)(=O)c2cc(C(=O)NCCSC3CCCCC3)ccc2C)c1 | 0.136

SMILES | z-score
COc1ccc(-c2csc(NC(=O)COC(=O)c3ccc(Br)o3)n2)cc1 | -0.242
COC(=O)c1cccc(N(C(=O)CNC(=O)c2ccco2)C(C(=O)NC2CCCC2)c2ccco2)c1 (stereo not given) | 0.0125
Cc1nnc(SCc2cccc(CSc3nnc(C)s3)c2)s1 | -0.0567
O=C(N/N=C/c1ccco1)c1cc(-c2cccc3ccccc23)n[nH]1 | -0.696
CCCOc1ccc(C2C(C(=O)OC)=CN(CCOC)C=C2C(=O)OC)cc1 | -0.356
CCC(C(=O)NCc1ccco1)N(Cc1cccs1)C(=O)CNS(=O)(=O)c1ccccc1 (stereo not given) | -0.319
Cc1ccc(NC(=O)NNS(=O)(=O)c2ccc(Br)cc2)cc1 | -0.276
COc1cc(C(=O)Nc2ccc3c(c2)C(=O)c2ccccc2C3=O)cc(OC)c1OC | -0.165
O=C(NC(=S)Nc1ncc(Br)cc1Br)c1cncc(Br)c1 | 0.278
Cc1ccsc1/C=N/Nc1ncc(Cl)cc1Cl | -0.179
CCN1CCN(C(=O)Cn2ncc3c2-c2ccccc2OC3)CC1 | 0.0205
O=C(CSc1nc(-c2ccc(F)cc2)cc(C(F)(F)F)n1)NCc1ccco1 | -0.312
C=CCNC(=O)C1CCN(c2nc(C)cc(-c3ccccc3)n2)CC1 | -1.08
Cc1ccccc1N(C(=O)c1cccs1)c1nc2ccccc2s1 | -0.386
CCOC(=O)CSc1nnc(-c2ccoc2C)n1-c1ccc(OCC)cc1 | -0.921
Cc1cc(C)c(C(=O)COC(=O)c2cccc(S(=O)(=O)NCc3ccccc3)c2)cc1C | -0.153
CCOc1c2ccc(C(=O)N[C@H](C)C3CCCCC3)cc2nn1CC | -0.122
COc1cccc(C(=O)O/N=C(\N)c2ccncc2)c1OC | -0.365
O=C(c1ccc(N2C(=O)C3CCCCC3C2=O)cc1)N1CCCCC1 (stereo not given) | -0.0104
CC1CC(C)CN(CCCNC(=O)C2CCN(S(=O)(=O)N3CCCCC3)CC2)C1 (stereo not given) | 1.06
COc1ccc(CCn2c(-n3nc(C)cc3C)nc3c2c(=O)[nH]c(=O)n3C)cc1 | -0.107
C=CCc1cccc(CNc2nc3ccccc3n2CCN2CCOCC2)c1O | 0.127

Reference: PubChem BioAssay AID488969 (Vanderbilt High Throughput Screening Facility, 2010)
